According to article PMC4336329 (PLoS ONE, 2015):
About 2,200 (0.71%) of roughly 310,000 compounds showed an effect of 50% or more. The effect is printed as a negative number. This is one part of the list.

Each compound was assayed against human ether-à-go-go-related gene (hERG) potassium channel (human, UniProt Q12809) (assay: primary screen, population patch clamp on CHO cells stably expressing hERG).
human ether-à-go-go-related gene (hERG) potassium channel, sequence (Q12809 whole entry, looked up): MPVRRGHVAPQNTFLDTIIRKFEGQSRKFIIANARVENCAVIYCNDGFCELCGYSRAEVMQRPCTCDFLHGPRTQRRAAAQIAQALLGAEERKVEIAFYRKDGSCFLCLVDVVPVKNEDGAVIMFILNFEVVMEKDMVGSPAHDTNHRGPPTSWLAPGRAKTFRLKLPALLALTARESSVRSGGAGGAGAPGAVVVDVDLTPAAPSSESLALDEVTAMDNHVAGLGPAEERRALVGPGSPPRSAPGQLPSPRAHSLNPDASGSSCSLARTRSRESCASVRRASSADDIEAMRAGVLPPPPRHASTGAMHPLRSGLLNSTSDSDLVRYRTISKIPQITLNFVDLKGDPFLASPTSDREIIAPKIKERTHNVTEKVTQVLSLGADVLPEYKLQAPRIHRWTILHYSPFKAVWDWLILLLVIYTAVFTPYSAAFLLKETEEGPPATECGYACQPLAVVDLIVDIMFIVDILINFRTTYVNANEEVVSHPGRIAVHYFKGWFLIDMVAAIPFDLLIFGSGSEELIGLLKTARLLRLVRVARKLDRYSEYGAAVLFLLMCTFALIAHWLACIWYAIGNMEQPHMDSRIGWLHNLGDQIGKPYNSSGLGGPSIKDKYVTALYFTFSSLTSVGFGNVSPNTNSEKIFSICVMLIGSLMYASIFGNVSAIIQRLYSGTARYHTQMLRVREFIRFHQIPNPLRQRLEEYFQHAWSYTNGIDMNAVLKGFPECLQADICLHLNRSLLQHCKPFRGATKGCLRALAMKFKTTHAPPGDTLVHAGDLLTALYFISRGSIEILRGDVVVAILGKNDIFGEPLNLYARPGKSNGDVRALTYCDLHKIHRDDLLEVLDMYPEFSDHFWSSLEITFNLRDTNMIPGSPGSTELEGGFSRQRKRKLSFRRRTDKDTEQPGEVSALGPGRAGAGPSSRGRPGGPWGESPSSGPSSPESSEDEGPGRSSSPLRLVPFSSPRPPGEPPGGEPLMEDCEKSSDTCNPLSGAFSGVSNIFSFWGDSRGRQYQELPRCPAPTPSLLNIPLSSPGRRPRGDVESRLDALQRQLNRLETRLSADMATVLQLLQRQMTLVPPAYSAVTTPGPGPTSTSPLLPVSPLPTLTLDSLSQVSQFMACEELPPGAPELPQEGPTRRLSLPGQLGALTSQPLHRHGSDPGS

Row | SMILES | hERG current change (%, negative = inhibition) at 1uM
1 | COC(=O)C1=C(C)OC(N)=C(C#N)C1c1cc(OC)c(OCC(N)=O)cc1Cl (stereo not drawn) | -4.39%
2 | O=C(NCC1(N2CCOCC2)CCCCC1)c1ccc(S(=O)(=O)Nc2ccccc2F)cc1 | 9.54%
3 | O=C(NC(C(=O)c1ccccc1)n1c(=O)cc[nH]c1=S)c1ccccc1 (stereo not drawn) | 6.94%
4 | O=C(N/C(=C/c1cccc([N+](=O)[O-])c1)C(=O)N1CCOCC1)c1ccc(Br)cc1 | -19.6%
5 | COc1cc(OC)c(NC(=O)CN(C)S(=O)(=O)c2ccc3[nH]c(=O)oc3c2)cc1Cl | 2.68%
6 | CC1CCCC(C)N1CCCNC(=O)C(=O)Nc1ccc2nc3n(c(=O)c2c1)CCCCC3 (stereo not drawn) | 10.1%
7 | CCC(C)N1C(=O)CCC1C(=O)N1CCN(c2ccccc2F)CC1 (stereo not drawn) | 17%
8 | O=c1[nH]nc(Cc2ccccn2)c2ccccc12 | -4.97%
9 | COc1cc(CN=Cc2c(O)n(C(C)(C)C)c(=O)[nH]c2=O)cc(OC)c1 | 9.75%
10 | CCOC(=O)c1ccc(N2C(=O)c3n[nH]c(C)c3C2c2ccco2)cc1 (stereo not drawn) | -2.9%
11 | CCC(=O)Nc1ccc(/C(C)=N/NC(=O)c2c(Br)c(C)nn2C)cc1 | 13.3%
12 | CCN(Cc1nc(-c2ccccc2)no1)C(=O)c1ccoc1C | 15.6%
13 | CC1CC(NC2=NCCS2)CC(C)(C)C1 (stereo not drawn) | 5.88%
14 | CCc1cccc2c(C(=O)COC(=O)c3nn(C)c(=O)c4ccccc34)c[nH]c12 | 4.05%
15 | CC(=O)c1ccc(NC(=O)CSC(C)C)cc1 | -5.93%
16 | COc1cc(S(=O)(=O)NCc2ccncc2)c(OC)cc1Br | -4.83%
17 | CCCNC(=O)c1ccccc1NC(=O)c1ccccc1SC | 13%
18 | O=C(Cc1ccc(Cl)c(Cl)c1)N1CCOCC1 | 18.5%
19 | O=C(c1ccc2c3c(cccc13)CC2)C1CCCN(Cc2ncc[nH]2)C1 (stereo not drawn) | 2.15%
20 | Cc1ccc(NC(=O)/C(C#N)=C(\N)C(Cl)(Cl)Cl)nc1 | 10.3%
21 | COc1cccc(Cn2nnc(C(=O)NCc3ccccc3Cl)c2N)c1 | 7.58%
22 | C#CCOCCOCCOCCNc1nc(N2CCN(C(=O)[C@H](CCCCN)n3cc([C@@H](N)C(C)CC)nn3)CC2)nc(N2CCN(C(=O)[C@H](Cc3ccc(O)cc3)n3cc([C@@H](N)CC(C)C)nn3)CC2)n1.Cl (stereo partly drawn) | -6.15%

Row | SMILES | hERG current change (%, negative = inhibition) at 1uM
23 | O=C(Nc1ccc(Cl)cc1F)c1cccc2ccccc12 | 12.8%
24 | CN(C1=NC(=O)CS1)c1ccc(O)cc1 | -3.57%
25 | COC(c1ccc(Cl)cc1)(c1ccc(Cl)cc1)C(Oc1nc(C)cc(C)n1)C(=O)O (stereo not drawn) | 11.1%
26 | O=C(COc1ccc2c3c(c(=O)oc2c1)CCCC3)NCc1ccncc1 | 10.2%
27 | CN1CCN(c2nc3ccccn3c(=O)c2/C=C(\C#N)S(=O)(=O)c2ccc(Cl)cc2)CC1 | -4.87%
28 | COc1cccc(CN(C)C(=O)c2cccc(OCc3ccccc3)c2)c1 | 12.3%
29 | CCOc1cccc(CN2CCCC(N3CCc4cc(OC)c(OC)cc4C3)C2)c1O (stereo not drawn) | 13.3%
30 | Cc1ccc(S(=O)(=O)NCC(c2ccccc2)N2CCN(CCC#N)CC2)cc1 (stereo not drawn) | 6.5%
31 | Cc1ccc2[nH]c(C)c(CCN(Cc3cccnc3)C(=S)NC(C)(C)C)c2c1 | 6.78%
32 | Cc1cnc(C)c(N(C)NC(=S)Nc2ccccc2)n1 | -3.38%
33 | Clc1cccc(C2NCc3ccccc3-n3cccc32)c1 (stereo not drawn) | 18.2%
34 | COc1cccc(NC(=O)C2CCCN2S(=O)(=O)c2ccc3c(c2)C(C)(C)C(=O)N3C)c1 (stereo not drawn) | 15.8%
35 | COc1ccc2nc(Nc3nc(CSc4ccc(C)cc4)cc(=O)[nH]3)nc(C)c2c1 | 5.9%
36 | Cc1ccc(C(C(=O)NCc2ccc(F)cc2)N(CCCO)C(=O)C2COc3ccccc3O2)o1 (stereo not drawn) | -7.88%
37 | O=C1NC2(CCCCC2)Cc2ccccc21 | 8.55%
38 | Cc1ccc(S(=O)(=O)/N=S(\C)C(C)C)cc1 (stereo not drawn) | 14.4%
39 | Oc1cnn(-c2ccccc2)c1 | 5.96%
40 | CCCC(=O)Nc1cc(S(=O)(=O)N2CCCCC2)ccc1N1CCOCC1 | 12.5%
41 | CCOc1ccc(S(=O)(=O)N2CCCC(C(=O)N3CCOCC3)C2)cc1Cl (stereo not drawn) | 9.84%
42 | CC(Oc1ccc(Cl)cc1)c1ccc(C#N)c(=O)[nH]1 (stereo not drawn) | -2.59%
43 | COc1ccc(NC2CC(=O)N(c3ccc(C(=O)O)cc3)C2=O)cc1 (stereo not drawn) | 10.5%
44 | NC(=O)c1ccccc1NC(=O)CCCN1C(=O)CCC1=O | 10.5%

Row | SMILES | hERG current change (%, negative = inhibition) at 1uM
45 | O=S(=O)(Nc1ccc(O)c2ccccc12)c1ccc(OC(F)(F)F)cc1 | 7.82%
46 | COc1cc(C(=O)NC(=S)Nc2ccccc2N2CCOCC2)cc(OC)c1OC | 10.7%
47 | COc1ccc(N2CCN(C3CC(=O)N(Cc4ccccc4)C3=O)CC2)cc1 (stereo not drawn) | 7.93%
48 | COc1ccc(S(=O)(=O)NCCc2csc(-c3cccnc3)n2)cc1 | -9.72%
49 | C[C@@]12C(=O)N(c3cccc(F)c3)C(=O)N1[C@H](c1ccc(Cl)cc1)[C@@H]1C(=O)N(C3CCCCC3)C(=O)[C@@H]12 | 5.1%
50 | O=C(O)CNS(=O)(=O)c1cccc(Cl)c1 | 16.2%
51 | CCOc1ccc(/C=C/C(=O)N(CC)CC(=O)Nc2ccc3c(c2)OCCO3)cc1OC | -7.86%
52 | Cc1coc2cc3oc(=O)c(CC(=O)N[C@@H](CC(C)C)C(=O)O)c(C)c3cc12 | 12.7%
53 | Cc1ccc(N=c2c([N+](=O)[O-])nn(-c3ccccc3)n2O)c(C)c1 | -8.64%
54 | C=CCNC(=O)CC(C)C(CCCCC)C(=O)O (stereo not drawn) | 12%
55 | O=C(Cc1nn[nH]n1)Nc1ccc(F)cc1F | 5.94%
56 | COc1cccc(-c2nn3c(-c4cc(C)[nH]n4)nnc3s2)c1 | -37.5%
57 | O=C(Nc1ccccc1N1CCCCC1)c1cc(S(=O)(=O)N2CCOCC2)ccc1Cl | 7.72%
58 | Cn1cnc(S(=O)(=O)N2CCN(c3ccc(Cl)cc3)CC2)c1 | 0.126%
59 | O=S(=O)(c1ccccc1F)N1CCN(CCOc2ccccc2)CC1 | 3.57%
60 | O=C(/C=C/c1ccco1)N1CCCC(c2ccccc2)C1 (stereo not drawn) | 7.68%
61 | O=C(COc1ccccc1)NCc1ccc2c(c1)OCO2 | 3.49%
62 | COc1ccc2c(c1)C1CC(C)(NC(=O)C1S(=O)(=O)c1ccc(F)cc1)O2 (stereo not drawn) | 7.97%
63 | CCNc1nc(Sc2ccc(C)cc2)cc(C(F)(F)F)n1 | 9.96%
64 | COc1ccc2c(c1)C=C(C(=O)OCc1cccnc1)CO2 | 10.4%
65 | O=C(Cc1ccccc1)NCC(=O)Nc1ccccc1Br | 17.9%
66 | CC(C)c1ccc(-c2noc(C3CCCN(S(C)(=O)=O)C3)n2)cc1 (stereo not drawn) | 7.38%

Row | SMILES | hERG current change (%, negative = inhibition) at 1uM
67 | O=C(O)c1cc2c(cn1)[nH]c1ccccc12 | 6.5%
68 | COC(=O)c1cc(NC2c3ccccc3C(=O)N2c2ccc(Cl)cn2)cc(C(=O)OC)c1 (stereo not drawn) | 16.4%
69 | CCc1[nH]c(=O)c(C#N)c2c1CCCC2 | -6.15%
70 | CCC(=O)N1CCc2cc(Br)cc(S(=O)(=O)C3(C(=O)OC)CC3)c21 | 13.1%
71 | CCc1ccc(CN2CCC(n3nccc3NC(=O)c3cccc(F)c3)CC2)cc1 | -78.3%
72 | O=C(NCc1ccc2c(c1)OCO2)c1nc(Cn2ccc([N+](=O)[O-])n2)no1 | 6.56%
73 | COC(CNC(=O)CN1CCN(Cc2ccc(F)cc2Cl)C1=O)OC | 7.51%
74 | O=C(NCCO)/C(=C\c1cccc([N+](=O)[O-])c1)NC(=O)c1ccco1 | 8.45%
75 | N#C/C(=C\c1ccc(OC(F)F)cc1)C(=O)N1CCCCC1 | 4.05%
76 | COc1ccc(NC(=O)CN(C)C(=O)CSC(c2ccccc2)c2ccccc2)cc1 | 3.44%
77 | Cn1cncc1C#Cc1ccc2cc(CCCO)oc(=O)c2c1 | 15.6%
78 | NC(=O)CC(NC(=O)c1ccccc1)c1ccc(NCCc2cccc(F)c2)c([N+](=O)[O-])c1 (stereo not drawn) | 14.8%
79 | CC(=O)c1cn(CC(=O)NCc2ccco2)c2ccccc12 | 8.69%
80 | Cc1ccccc1C(=O)N1CCN(c2ccc([N+](=O)[O-])c(NCc3ccco3)c2)CC1 | 5.64%
81 | Cc1ccc(NC(=O)CSc2nc3ccccc3c(=O)n2CCCN2CCCCC2)cc1C | -36%
82 | COc1ccc(C(=O)/C=C/c2ccc(N(C)C)cc2)c(OC)c1 | 6.75%
83 | O=C(Cc1c(F)cccc1Cl)NNC(=O)Nc1ccc2c(c1)OCO2 | 17%
84 | Cc1ccccc1C(=O)Nc1ccnn1C1CCN(Cc2cnn(C)c2)CC1 | -1.26%
85 | O=C(CSc1n[nH]c(-c2ccncc2)n1)c1cccc([N+](=O)[O-])c1 | 1.59%
86 | CC(NC(=O)Cc1ccc(NC2=NC3CS(=O)(=O)CC3S2)cc1)c1ccccc1 (stereo not drawn) | 10.4%
87 | COc1cccc(CN(C(=O)Cn2nnc(-c3ccccc3F)n2)C(C(=O)NC(C)(C)C)c2ccncc2)c1 (stereo not drawn) | 7.2%
